For orientation: IC50 means the concentration at which inhibition is half-maximal.

These results are taken from patent US8669255B2, “Substituted octahydropyrrolo[1,2-a]pyrazines as calcium channel blockers” (AbbVie Inc., priority 2011, dated 2014).

The assay concerns the target human Cav2.2 (Homo sapiens, UniProt Q00975). The experiment in a line: In vitro assessment of calcium channel activity using FLIPR (Ca2+ influx in IMR32 cells). The format is cell-based. The conditions noted are these: IMR32 cells endogenously expressing human Cav2.2; 60 minute pre-incubation; 2 μM nifedipine; depolarized with 80 mM KCl; average of at least two runs unless marked (*).
As for `O=C(c1ccc(F)c(OC(F)(F)F)c1)N1CCN2C[C@H](Oc3cnc(C4CC4)cn3)C[C@H]2C1` [Example 132, [(7R,8aS)-7-[(5-cyclopropylpyrazin-2-yl)oxy]hexahydropyrrolo[1,2-a]-pyrazin-2(1H)-yl][4-fluoro-3-(trifluoromethoxy)phenyl]methanone], the IC50 came to 1610 nM.
Take `O=C(c1ccc(Cl)c(OC(F)(F)F)c1)N1CCN2C[C@H](Oc3cnc(C4CC4)cn3)C[C@H]2C1` [Example 133, [4-chloro-3-(trifluoromethoxy)phenyl][(7R,8aS)-7-[(5-cyclopropylpyrazin-2-yl)oxy]hexahydropyrrolo[1,2-a]pyrazin-2(1H)-yl]methanone]: the IC50 is 920 nM.
The same measure for `O=C(Cc1cccc(C(F)(F)F)c1)N1CCN2C[C@H](Oc3cnc(C4CC4)cn3)C[C@H]2C1` [Example 134, 1-[(7R,8aS)-7-[(5-cyclopropylpyrazin-2-yl)oxy]hexahydropyrrolo[1,2-a]-pyrazin-2(1H)-yl]-2-[3-(trifluoromethyl)phenyl]ethanone]: 380 nM; for `COc1c(F)ccc(C(=O)N2CCN3C[C@H](Oc4cnc(C5CC5)cn4)C[C@H]3C2)c1F` [Example 135, [(7R,8aS)-7-[(5-cyclopropylpyrazin-2-yl)oxy]hexahydropyrrolo[1,2-a]-pyrazin-2(1H)-yl](2,4-difluoro-3-methoxyphenyl)methanone]: 6460 nM; for `O=C(c1cccc2c1OC(F)(F)O2)N1CCN2C[C@H](Oc3cnc(C4CC4)cn3)C[C@H]2C1` [Example 136, [(7R,8aS)-7-[(5-cyclopropylpyrazin-2-yl)oxy]hexahydropyrrolo[1,2-a]-pyrazin-2(1H)-yl](2,2-difluoro-1,3-benzodioxol-4-yl)methanone]: 1960 nM.
Turning to `O=C(c1cc(Cl)cc(OC(F)(F)F)c1)N1CCN2C[C@H](Oc3cnc(C4CC4)cn3)C[C@H]2C1` [Example 137, [3-chloro-5-(trifluoromethoxy)phenyl][(7R,8aS)-7-[(5-cyclopropylpyrazin-2-yl)oxy]hexahydropyrrolo[1,2-a]pyrazin-2(1H)-yl]methanone], the IC50 was determined as 1380 nM.
On to `O=C(Cc1ccc(F)cc1)N1CCN2C[C@H](Oc3cnc(C4CC4)cn3)C[C@H]2C1` [Example 138, 1-[(7R,8aS)-7-[(5-cyclopropylpyrazin-2-yl)oxy]hexahydropyrrolo[1,2-a]pyrazin-2(1H)-yl]-2-(4-fluorophenyl)ethanone], for which the IC50 came to 10600 nM.
The same measure for `O=C(Cc1cccc(C(F)(F)F)c1Cl)N1CCN2C[C@H](Oc3cnc(C4CC4)cn3)C[C@H]2C1` [Example 139, 2-[2-chloro-3-(trifluoromethyl)phenyl]-1-[(7R,8aS)-7-[(5-cyclopropyl-pyrazin-2-yl)oxy]hexahydropyrrolo[1,2-a]pyrazin-2(1H)-yl]ethanone]: 660 nM.
The same measure for `O=C(Cc1cc(C(F)(F)F)ccc1F)N1CCN2C[C@H](Oc3cnc(C4CC4)cn3)C[C@H]2C1` [Example 140, 1-[(7R,8aS)-7-[(5-cyclopropylpyrazin-2-yl)oxy]hexahydropyrrolo[1,2-a]-pyrazin-2(1H)-yl]-2-[2-fluoro-5-(trifluoromethyl)phenyl]ethanone]: 730 nM; for `O=C(Cc1cccc(C(F)(F)F)c1F)N1CCN2C[C@H](Oc3cnc(C4CC4)cn3)C[C@H]2C1` [Example 141, 1-[(7R,8aS)-7-[(5-cyclopropylpyrazin-2-yl)oxy]hexahydropyrrolo[1,2-a]-pyrazin-2(1H)-yl]-2-[2-fluoro-3-(trifluoromethyl)phenyl]ethanone]: 450 nM; for `O=C(Cc1cc(F)cc(C(F)(F)F)c1)N1CCN2C[C@H](Oc3cnc(C4CC4)cn3)C[C@H]2C1` [Example 142, 1-[(7R,8aS)-7-[(5-cyclopropylpyrazin-2-yl)oxy]hexahydropyrrolo[1,2-a]-pyrazin-2(1H)-yl]-2-[3-fluoro-5-(trifluoromethyl)phenyl]ethanone]: 630 nM.
